Results taken from PubChem BioAssay AID759 (NMMLSC, 2007).
About 270 (0.14%) of roughly 190,000 compounds were called active. This list was built around the results that the source calls inconclusive (neither active nor inactive); the mix of calls is not that of the screen.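 How the source made its calls: active means GTP binding activity at least 20% away from the 100% baseline, either lowered as inhibitor or raised as activator; inconclusive means flagged as likely green fluorescent, judged across all proteins in the well; inactive means the rest.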

The compounds below were run against GTPase HRas (Homo sapiens) (UniProt P01112) (assay: HRas wt fluorescent GTP binding changes, either direction – biochemical, wildtype, bead-based flow cytometry, multiplex, primary screen (AID 759;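 further: 0% = unlabeled GTP competition control and 100% = no-compound control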)). Conditions: GST-Ras wt beads, Bodipy-FL-GTP binding, at 10 µM, actives lie on both sides.
UniProt P01112, sequence (P01112 whole entry, looked up): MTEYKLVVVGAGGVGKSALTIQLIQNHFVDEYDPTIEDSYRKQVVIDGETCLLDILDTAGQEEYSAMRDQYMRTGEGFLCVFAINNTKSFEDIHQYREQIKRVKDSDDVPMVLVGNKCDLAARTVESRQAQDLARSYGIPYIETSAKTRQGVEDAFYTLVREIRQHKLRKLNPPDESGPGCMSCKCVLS

GTP binding activity, inconclusive:
c1ccc(CSc2ccc(-c3cccs3)nn2)nc1 94%
CCOC(=O)C1=C(CC)Nc2ccccc2N=C1NC(=O)c1ccc(OC)c(S(=O)(=O)N2CCCCC2C)c1 (stereo not drawn) 93%
CC1(C)CC(=O)C(C=NCCN2CCOCC2)=C(O)C1 108%
N#CC1=C(N)OC2=C(C(=O)CCC2)C1c1ccsc1 (stereo not drawn) 104%
Cc1ccc(NC(=O)CN(C)CC(=O)Nc2cccc(F)c2)cc1S(=O)(=O)N1CCCCCC1 116%
O=C(NC1CCCC1)c1cc(Cl)ccc1[N+](=O)[O-] 102%
Cc1cc2nc(-c3ccc(SCc4ccccc4C#N)nc3)[nH]c2cc1C 91%
CC(=O)N1CCN(c2ccccc2NC(=O)c2ccc(-c3cccc([N+](=O)[O-])c3)o2)CC1 92%
COc1ccc(/C=C(/NC(=O)/C=C/c2ccccc2)C(=O)N2CCOCC2)cc1 103%
c1ccc(CSc2ccc3nnc(-c4cccnc4)n3n2)cc1 90%
COc1ccc(C(=O)NNC(=S)NC(=O)c2cc(-c3ccccc3)nc3ccccc23)cc1 94%
O=C(O)CCCCCNS(=O)(=O)c1ccc(Cl)cc1 98%
O=C(NCc1ccc(F)cc1)C(c1ccccc1)N(CC1CCCO1)C(=O)Cn1nnc2ccccc21 (stereo not drawn) 846%
Cc1ccc(C(=O)N2c3ccccc3CC2C)o1 (stereo not drawn) 92%
CC1=C(C(=O)OC(C)C)C(c2cccs2)n2ncnc2N1 (stereo not drawn) 101%
O=C(C1CCC(CNc2nc(=S)[nH]c3ccccc23)CC1)N1CCN(c2ccc(F)cc2)CC1 (stereo not drawn) 86%
COc1ccc(/C=C(/C#N)C(=O)Nc2cccc([N+](=O)[O-])c2)cc1C(=O)O 90%
COc1ccc(-c2cc(C(F)(F)F)n3nc(C(=O)NCCCN4CCOCC4)cc3n2)cc1 96%
Cn1c(Sc2ccc(Br)cc2)c(C=O)c2ccccc21 96%
COC(=O)c1ccc(Oc2cc(C)nc(SC)n2)cc1 105%
Cc1ccc(SCCC(=O)N2CCC(C(N)=O)CC2)cc1 96%
NC(=O)c1cc2ccccc2o/c1=N/NC(=O)c1cccs1 73%
COC(=O)c1cc(OC)c(OC)cc1NC(=O)c1ccccc1 102%
CN(C)c1ccc(/C=N\NC(=O)CC#N)cc1 95%
CCc1cc(C(c2ccccc2OC)N2CCOCC2)c(NC(=O)c2ccccc2)s1 (stereo not drawn) 104%
O=C(CSc1nnc(-c2ccco2)o1)c1ccc[nH]1 94%

GTP binding activity, active:
CCOC(=O)c1ccc(Nc2nc(C(=O)OCC)nc3ccccc23)cc1 73%
Cc1nc(-c2cnn(-c3ccccc3)c2)c2cc(C)oc2n1 72%
NC(=S)N=Nc1c(O)[nH]c2ccc(F)cc12 76%
Cc1ccc(C(=O)c2ccccc2C(=O)O)cc1C 123% [activator]
O=c1c2ccccc2nc2c3ccccc3cnn12 77%

GTP binding activity, inactive:
Cc1ccc2c(c1)N(C(=O)CCC(=O)O)CCO2 101%
COc1cccc(-c2cc(C(F)(F)F)c(C#N)c(=O)[nH]2)c1 83%
CC1SC(c2ccccc2)N(CC(O)c2ccc([N+](=O)[O-])cc2)C1=O (stereo not drawn) 100%
CCOC(=O)c1sc2ncn(/N=C/c3ccc(O)c(OC)c3)c(=O)c2c1C 98%
O=C1C(NS(=O)(=O)c2ccc(Cl)cc2)=C(N2CCCCC2)C(=O)c2ccccc21 95%
COc1cccc(CNc2ccccc2O)c1OCc1ccccc1F 95%
CC(=O)Oc1ccc(-c2cccc(C(=O)N(C)c3ccc(O)cc3)c2)cc1 98%
COc1cc(/C=N/NC(=O)CCN2CCN(c3ccccc3)CC2)cc(OC)c1OC 86%
CC(=O)Nc1ccc(Nc2ccc3nonc3c2[N+](=O)[O-])cc1 95%
O=C(/C=C/c1cccc([N+](=O)[O-])c1)OCC(=O)c1ccccc1 101%
COc1cc(OC)cc(C(=O)NNC(=O)NC2CCCCC2)c1 103%
O=C(NCc1ccco1)/C(=C\C=C\c1ccccc1)NC(=O)c1ccccc1Br 98%
CN(C)c1ccc(NC(=O)CSc2n[nH]c(-c3ccco3)n2)cc1 94%
CCCCc1ccc(NC(=S)N2CCC(O)CC2)cc1 98%
COc1ccc2nc(/C(C#N)=C\c3ccc(C(=O)O)cc3)[nH]c2c1 86%
O=C(NCC1CCCO1)c1ccc(COc2ccccc2Br)cc1 (stereo not drawn) 100%
CN1CCC(N(C)C(=O)CCc2nc3ccccc3n2-c2ccccc2)CC1 100%
